The list shows a part of the results.
The sequences below were run on PF3D7_0420300 AP2 domain 1 (GST-tagged) (assay: gcPBM binding intensity (ln(normalized median fluorescence intensity)); higher = stronger DNA binding).
Procedure, shortened: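 Binding intensity is defined as the maximum Masliner-normalised natural-log median intensity across replicate spots for either probe orientation. It was measured on an Agilent 4 × 180k array of primer-extended double-stranded 36-bp intergenic genomic probes and negative controls, to which GST-tagged P. falciparum DNA-binding domains made in E. coli were applied for 1 h in 1× PBS with 1% milk, 0.2 mg/ml BSA, 0.5% salmon testes DNA and 0.03% Triton X-100. Detection was by Alexa488 anti-GST antibody and scanning at 488 nm.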

Sequence	gcPBM binding intensity (ln)
AAACATAAGAGACACACACACATATATAAATAAATA [CACACA_site7674]	10.2
AAAAATAAAATAAAGAAGGAAAATAAAAAAATAAGG [CACACA_negctrl_site1811]	9.43
AGGAGGTCAGTTCACAGTACCCAGGAAATCTACGGA [XGTACX_site2552]	9.06
AATTTCATAAATATAACTGAGAATAAATAAACAAAG [GTGCAC_negctrl_site146]	9.34
CCTGTAAATAAATATAAATACATATTTCTAATATAT [GTGCAC_negctrl_site21]	9.01
GTATATATGTATATATGTACATATATACATTTTGTT [XGTACX_site7320]	9.34
CGTTAAAGGGAATGTATACACACGTTTCTCTATGTT [CACACA_site1198]	9.55
TTAAATAATATTAAATGTACATATTATTATGATATA [XGTACX_site6189]	8.94
TTATAACAACTGGAATGATTAACAATAAATATTAAA [CACACA_negctrl_site1723]	9.19
TATATATTTAACAATCGTACATATTTACAAATATAA [XGTACX_site2131]	8.99
ACAGAAAAAAAACACACACACATAATATACATACAT [CACACA_site1932]	10.2
TATACATATATAAATGCATGTTGATATTAATAGTTA [TGCATGCA_site639]	9.05
AGGAGACTTAAAAAAAGTACAAAAAAAAAAAAAAGC [XGTACX_site1576]	9.65
TATTTTTTTTTCTTTTTATATATAATAATCTTCATT [GTGCAC_negctrl_site80]	9.24
ATATTTCTGTCAAGCACACATAATATTAAAATATGT [CACACA_site4330]	9.31
ATTTAGAAAAATAAAACACACATATAGATGTAAATA [CACACA_site7853]	9.43
TCATATTATAATGTGAGTACATATAATAAATAAGTT [XGTACX_site2470]	9.12
ATGTTTGTCTATAGCTGTACCTATTTATAAAACGTA [XGTACX_site7157]	9.34
TTAATATGATATATATATATATATATATATATATAT [CACACA_negctrl_site683]	8.91
GTAAAAATTTTAAATACATGCAAGCGATTAATATGA [TGCATGCA_site80]	9.1
AAGAAAAACTTTACGTGTACCAAACATCCTGCCAAC [XGTACX_site598]	9.64
ATAGACAGCGCACAAACACACAAACACCCACCCACA [CACACA_site8043]	10.1

Sequence	gcPBM binding intensity (ln)
TATATTGATGATGATAGTACGTATGATTAGAAAAAA [XGTACX_site8989]	9.18
AGTGATACTAATTTTTGTACGCATAAAAGAATATTC [XGTACX_site6055]	9.08
AAAAAAAAAAAAATACGTACATACATACCTACATAT [XGTACX_site233]	9.4
TATATATATATGTGTACACAATTTATCTGTATTTAT [CACACA_site5945]	9.5
TTTTTTTTTTTTTTTTGTACGTATCAAAAAATTTGT [XGTACX_site1023]	8.53
AAAAATAAATTTAGTTGTACTTTATTATTTTAAATA [XGTACX_site3067]	9
AATCAATAAATAAAAACATGCATATATATATATATA [TGCATGCA_site438]	9.3
AAAATAAAAATATTCACACATACAAAAATTATACAA [CACACA_site5136]	9.56
CATTAATAAAAAAAAAGTACAAAAAATATATATATT [XGTACX_site2091]	9.42
ATTTTTTTACTGTAACCATATTTTTCCCTTTTATTC [CACACA_negctrl_site1143]	9.45
ATAATATATATATATAGTACATATATATAATATTCT [XGTACX_site2445]	9.16
ATATAAAAATGTGTATGTACACACTTTATTTTTAAT [XGTACX_site5272]	9.29
ATCCTTTATTTTTTTTGTACATAAAAATAACTCGAG [XGTACX_site3885]	9.18
TTAAAAAACCTTAGATGTACAGTTATATATAAAATA [XGTACX_site6688]	9.18
AAATTACAAATACAAACACACAAATGTTTTTCATTC [CACACA_site3552]	9.4
TTTTTCTATAAAAAATGTACATATTTTATGAAGGAA [XGTACX_site821]	8.75
TGAACACACGAGCACACACACACATCTATATTTATA [CACACA_site6607]	10.1
TGGAATAATACGCGTACACACATATATATATTAATA [CACACA_site131]	9.6
AGGTATCAAAAATATGCATGCAATATTTTATGTAAT [TGCATGCA_site1055]	9.16
AAAATATAATATAATGCACACATAAAACAAAAAAAA [CACACA_site8989]	9.74
GAATAATATATATATTGTACTTTTTATTTATATTAT [XGTACX_site3180]	9.26
AAAAAAAAATTAATATATAAAAGGATATATATATAT [GTGCAC_negctrl_site449]	9.03

Source: the supplement of paper PMC11417369
